The source gives no read counts; variants with many changes may rest on few reads.
B1: OR4K15 (parent)
chain: GUUAACGGUCAUAGGCCAUGGAAACUAGGAGCACCAUUUCGCUGCCAGUGAAGAAAUGAACAAAGAAAAUCUGGGCCAGGCAGGCAUCAAAAGAAAUAGUCUUGCGCUCAACCAGAAAGUCUGUAAUCAUUUUAAGGGUA

Variants of: B1
Experiment: self-cleavage, relative activity (ratio to wild type); higher = more cleavage; in vitro, sequencing; the parent is a self-cleaving ribozyme

Variant	self-cleavage
A11G U70A C101A	0.14
A11G A60G A135U	0.61
A11G U100C A117G U130A	1.14
A11G C40U A117G U124C	0.95
A11C A67G A78C	0.34
A11G U57C C61U A62G G84C U97C U127A	0.1
U12A C45U A66G U139C	1.72
A11U U72C A82G U103C	0.01
A11G A36G A67G	0.79
U12A U43A A66G	1
A11U A18G A52G U70C U131A U139C	0.46
U12C A22G U38C A47G	0.61
A11U A55G A59U A110G	0.07
A11G A52G A78U A94G A129C	0.08
C10A A33G A94G	1.01
C10U A23G U43C A51G	0.62
U12A U70C A126G	0.61
C10U A56G U103C	0.16
A11G A23G A89G U122C	1.03
A11G U19C U70A	0.65
U12C A27G A60G	1.54
U12A U39C A125U	0.59
A11U A27G A92G	0.75
A11G A56U A111G A126G	0.04

Variant	self-cleavage
A11G U37C A86G U139C	0.73
A11U U37C A54G A60G	0.46
A11U U38A A111C A134U	0.02
A11U G20A A54U A56U A64G U87C	0.32
A11G G41A A52G	1.23
U12A A91G U131A	0.69
A11G A86U A96U	2.09
U12C A18G A51G A89U	0.61
U12C A23U A55G U124C A126G	0.64
A11G A52G C71U U122C U132C	0.12
A11G U87A A90G	1.61
U12C A23G A51U A94G	0.89
A11G A36G A47G A117G	0.57
C10A A23U A36G U43A	1.11
A11U A82U U102A	0.91
A11G A51G A59C A110C	0.06
C10U U12A A56C A68G	0.74
A11G U12G U72A	0.94
A11U A24C A82G A114G A116G	0.1
A11G U39A A118U U127A	0.9
A11C A91G U100C U102C C121A A129U	2.9
A11G A64G A69G	1.48
U12A A89U A126G U130C	0.51
A11G U43A A90G U122C	0.54

Variant	self-cleavage
A11G U57C A62G	1.07
A11G A55G A62U A118G	0.44
A11C U39C A62G U72A C81U A92C U124C A140U	0.03
U12A U19C A59U A140C	1.11
A11G A33U U37A U100C	2.4
A11G A51U U108A	0.08
A11G A24C U49C A92G A111G A126G	0.01
A11G A22G U102A U122C U130C	0.58
A11G A52G G65U A135G	0.36
A11G A55G U72C	0.16
A11G U39C A140G	0.95
A11G U87A U108C	0.02
A11G A47C A55U	0.76
A11G A18U U72C	0.38
A11G A24G A52U U102C	0.49
A11G A91G U108C U139A	0.01
A11G A90G U120A	0.37
A11G A33G A54G A94G U100C A117C	2.79
U12C A24U U108A	0.08
A11U A60U A86G	1.23
A11G A23G U39C C46U U49C G50U U132A	1.03
C10U A55G A89G A114G	0.22
A11G A18G U43C A54U A134U	1.32
A11G U26C A47G A51G A96G	0.77

Variant	self-cleavage
A11G A18G G41A A118G	0.92
A11U U100A A110U	0.85
A11G A52G A91G A114G	0.15
A11U A117G U122C	1.31
U12C A22G A64G A67G A78G A125U A126G U132C	0.1
A11G A30G U57C A110G	0.11
A11G A24G G31U A82C U102G	0.87
A11G A23G A66G U102A U132C	1.42
A11C A54G U72C A82G U87C U132C A135U	0.12
U12C A27G U39C U108C	0.04
A11G A59G A62U A67G A116G	0.28
A11G C42U G44A	0.42
A11C A78G U100C A111G	0
U12A A22G U102C	1.46
C10U A11G U43A U57A U122C	0.26
A11G A23G A52G A64U A67G A82U	0.12
A11G U87A A94U	1.46
A11U U12A U139C	1.61
U12C A23G A62G A134U	0.53
U12A U39C A52G A68G	1.56
A11G A78G A135U	0.34
C10U A18G C34U U70C A125G	0.29
A11G G21U A51G U70C U131C	0.6
A11G A82U U108C	0.02

Variant	self-cleavage
C10U C34U A82G	0.56
A11G U72C A111G	0.07
A11G A23G A36G A64G A78U	0.2
A11G U37C A69G U130C	0.65
A11G A18U A22U A47U	0.36
A11U U72C A82G A89U U100C	0.5
A11G A24G A52G	1.34
A11U A13G A96U A117G	1.16
A11G A62U A114G	1.06
A11U A52U A69U	0.74
A11G C88U G99A	1.27
C10A A60G A86U A118G	0.82
A11G A23G U108C	0
C10U A23G A24C	1.97
A11G A67G C85U A118G	0.92
U12C A23G A118G	1.01
U12C A23G A78U	0.53
A11G U19C A91G	1.1
A11U U19C A23G U43A	0.84
U12C A22U G115A C121U	0.04
A11G A59G A60G U87A	0.38
U12A U38C A95G U131C	0.9
A11G A95G U131C	1.84
A11U A24G A62U	1.58

Variant	self-cleavage
A11G A51G A59U A94G	2.13
U12A A86G U120A	1.21
A11G U38G A96G U120C	0.44
A11U U19C C42G	1.63
A11G U26C A68G	1.02
A11G A82G U87C A91G U124G	0.04
U12A U39C U103C	0.6
A11G U131C A140G	1.03
A11G A18G A94U A117U U124C	0.17
A11U A13G A91G A140G	1.58
A11G U19C C42U A60U C61U	2.08
A11G U19C A30G	1.25
C10U U43C A60G A118U U133C	0.63
A11G U39C A67G A91U	1.04
A11U A24C U39A U49C A91G U133A	0.51
A11G U87G A91G G115U U120C A126G	0
U12A A68G U97C A117G	1.04
A11G A13G C35U A68U	0.99
U12A U37A U39C A78G A118G	0.1
U12A A33G A129U	0.19
A11G A23G G48A U87A U108C	0.02
U12A A62G U127C	1.03
A11U U43C A67G A140G	1.19
C10U A64G A90G	0.47

Variant	self-cleavage
A11U A90G U131C	0.47
A11G U19C A23G A89U A92G U132C	1.48
A11G A78G A91G U103C	0.07
A11G A78G U122C	0.14
C10U G53A A114G	0.54
U12A A52G A54U A68G A89G U108C A111G	0.02
A11G A18G U49C A68G A78G U87C U122C	0.15
A11U U72C U97C U100A	0.02
A11G A23G A86G	1.22
A11G A36U A67G A89G	0.91
A11C A30G A66G	1.35
A11G U43A A96G C107U	0.04
A11G U37C A52U	0.9
A11G U19C C107G	0.06
A11G A23G A126U U131A	0.56
A11G A56G A62G A69U U131C A140G	1.59
A11G A54G U87C	1.03
C10U U72C A117G	0.09
A11G A22U A86G	0.82
A11G G41A A52G U72A U87C U100C	0.2
C10U U127C U132C	0.26
U12A G29A U132C	1.03
U12A A52G U97C	1.7
